# Assay results published in PubChem BioAssay (NCATS).
# This list was built around the results that the source calls inconclusive (neither active nor inactive); the mix of calls is not that of the screen. For part of these data: Where the call is inconclusive, the potency comes from a doubtful curve fit. The source made the active and inactive calls. Unless noted, calls come from the whole dose curve; as a rule, active = well fitted curve in either direction with a large enough effect (not every such curve was filed as active); inconclusive = small, poorly fitted or top-dose-only effect, or another doubt; inactive = flat fitted curve, though single readings scatter.
# Key:
# [1] = AP1 Signaling Pathway (AID 357); details: ME-180 AP-1-bla reporter, EGF-induced, beta-lactamase ratio, 5 h; at 17.2 µM (top of the series) unless noted;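 note: ME-180 reporter cells stimulated with EGF at its EC50 level; top concentration of the series differs between compounds; % is set by controls: 0 for no effect and ±100 for the full control effect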
# Procedure, shortened: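 Beta-lactamase reporter under AP-1 response element, ME-180 background. Stimulus: EC50 EGF. Compound exposure 5 h, 37 °C. Detection: CCF4, 2.5 h RT, 460/530 nm. Values: AC50 from titration.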
# [2] = biological target: Ubiquitin carboxyl-terminal hydrolase 1 (Homo sapiens) (UniProt O94782); assay: Inhibitors of USP1/UAF1: Pilot qHTS (AID 504865; active = well fitted inhibition curve with a large enough effect; inconclusive = small, poorly fitted or top-dose-only effect; note: potency is the fitted concentration of half-maximal effect;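 note: rhodamine fluorescence freed from ubiquitin-rhodamine substrate followed over time; nearly all actives have a fitted effect of over 35% in size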; for activity change, negative = inhibition: top concentration of the series differs between compounds; % is set by controls: 0 for no effect and ±100 for the full control effect)
# Chain of UniProt O94782 (O94782 whole entry, looked up): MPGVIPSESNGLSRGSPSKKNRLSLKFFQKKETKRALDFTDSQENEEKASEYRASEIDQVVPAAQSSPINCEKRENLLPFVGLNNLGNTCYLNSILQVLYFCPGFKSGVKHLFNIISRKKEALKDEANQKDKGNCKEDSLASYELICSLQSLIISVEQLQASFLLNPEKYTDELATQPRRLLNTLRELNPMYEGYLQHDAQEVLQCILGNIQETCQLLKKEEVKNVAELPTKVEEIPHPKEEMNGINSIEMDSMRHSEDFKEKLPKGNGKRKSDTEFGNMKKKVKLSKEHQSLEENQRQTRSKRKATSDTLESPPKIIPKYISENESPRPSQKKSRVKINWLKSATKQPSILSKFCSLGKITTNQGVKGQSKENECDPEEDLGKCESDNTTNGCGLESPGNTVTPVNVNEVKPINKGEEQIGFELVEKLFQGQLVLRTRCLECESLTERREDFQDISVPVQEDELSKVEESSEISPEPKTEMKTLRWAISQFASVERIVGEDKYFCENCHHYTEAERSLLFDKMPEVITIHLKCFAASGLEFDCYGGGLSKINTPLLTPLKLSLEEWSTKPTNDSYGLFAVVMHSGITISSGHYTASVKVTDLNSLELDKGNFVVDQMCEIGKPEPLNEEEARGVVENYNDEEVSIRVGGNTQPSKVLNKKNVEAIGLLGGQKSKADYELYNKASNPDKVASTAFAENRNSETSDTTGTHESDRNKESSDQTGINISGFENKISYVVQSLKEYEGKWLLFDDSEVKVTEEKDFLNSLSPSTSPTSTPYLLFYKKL
# Procedure, shortened: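 Kinetic fluorescence assay: 1nM USP1/UAF1, 15 min compound preincubation, then 150nM Ub-Rho; 480/540 nm.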
# [3] = qHTS Assay for Identification of Small Molecule Agonists for Hypoxia Response Element Signaling Pathway (AID 914; active = well fitted activation curve with a large enough effect in the signal ratio, with a control signal flat, not every such curve was filed as active; inconclusive = small, poorly fitted or top-dose-only effect, or effect the other way, or a change in a side signal; the % refers to the signal ratio; note: potency is the fitted concentration of half-maximal effect; for activation: top concentration of the series differs between compounds; % of control where 0% means no effect); details: ME-180 (cervical carcinoma) HRE-bla reporter, beta-lactamase ratio, CoCl2, 17 h; activation: stronger effect = higher value
# Procedure, shortened: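 HRE-bla ME-180 assay for agonist-like enhancement of an EC50 CoCl2 stimulus: 17 h at 37 degrees Celsius, CCF4 for 2.5 h, ratiometric 460/530 nm signal converted to %Activity and fitted to AC50.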
# [4] = biological target: Mitogen-activated protein kinase 10 (Mus musculus) (UniProt Q61831); assay: JNK3 AlphaScreen Assay (AID 530); details: JNK3 lysate, c-Jun phosphorylation; activity change, negative = inhibition: at 57.1 µM (top of the series);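 note: kinase came from lysate of stimulated human HepG2 cells; signal reports phosphorylation of biotinylated GST-cJun 1-79 at Ser73 with 10 µM ATP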; note: potency is the fitted concentration of half-maximal effect; for activity change, negative = inhibition: % is set by controls: 0 for no effect and ±100 for the full control effect
# Procedure, shortened: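 Room-temperature AlphaScreen kinase assay; pre-activated HepG2 lysate as JNK3 source, biotin-GST-cJun(1-79) substrate, 10 uM ATP, compound 15 min preincubation.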
# [5] = biological target: 3',5'-cyclic-AMP phosphodiesterase 4B (Homo sapiens) (UniProt Q07343); assay: qHTS Assay for Inhibitors of PDE-IV (AID 607; active = well fitted activation curve with a large enough effect in the main read-out, with a control signal flat, not every such curve was filed as active; inconclusive = small, poorly fitted or top-dose-only effect, or effect the other way, or a change in a side signal; note: potency is the fitted concentration of half-maximal effect; for activation (PDE inhibition): % of control where 0% means no effect); details: HEK293 ACTOne CNG channel cells, membrane potential fluorescence; activation (PDE inhibition): at 22.9 µM (top of the series)
# Chain of UniProt Q07343 (Q07343 whole entry, looked up): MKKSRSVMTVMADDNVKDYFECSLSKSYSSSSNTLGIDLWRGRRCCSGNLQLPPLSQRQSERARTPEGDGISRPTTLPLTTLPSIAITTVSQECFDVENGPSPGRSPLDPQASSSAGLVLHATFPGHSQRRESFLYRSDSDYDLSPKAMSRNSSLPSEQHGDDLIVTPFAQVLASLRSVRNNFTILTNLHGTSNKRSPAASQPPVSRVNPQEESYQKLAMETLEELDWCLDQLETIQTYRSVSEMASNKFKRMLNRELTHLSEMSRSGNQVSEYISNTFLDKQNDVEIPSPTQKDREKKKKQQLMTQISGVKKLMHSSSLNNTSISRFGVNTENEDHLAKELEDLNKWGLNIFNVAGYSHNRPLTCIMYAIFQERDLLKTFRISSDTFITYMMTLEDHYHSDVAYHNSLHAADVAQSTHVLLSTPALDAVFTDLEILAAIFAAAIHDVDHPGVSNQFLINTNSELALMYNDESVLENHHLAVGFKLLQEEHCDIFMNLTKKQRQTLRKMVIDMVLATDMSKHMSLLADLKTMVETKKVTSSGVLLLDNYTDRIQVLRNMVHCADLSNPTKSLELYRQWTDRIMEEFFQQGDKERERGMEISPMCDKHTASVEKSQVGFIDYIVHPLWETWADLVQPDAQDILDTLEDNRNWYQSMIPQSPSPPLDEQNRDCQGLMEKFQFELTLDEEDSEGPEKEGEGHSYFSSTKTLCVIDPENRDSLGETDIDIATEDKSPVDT
# Procedure, shortened: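 The readout is membrane depolarisation from a cAMP-sensing CNG channel, detected with a potential dye at ex 535/em 590. Cells were HEK293-derived (endogenous PDE-IV) at 1000 cells/well, titrated up to 22.9 uM final.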
# Tags give direction and shape of the fitted curve or compound fluorescence and quenching.
smiles,measurement,setting,value
CC(C)(C)NC(=O)[C@@H]1C[C@H]2CCCC[C@@H]2CN1C[C@H](O)[C@H](Cc1ccccc1)NC(=O)[C@@H](CC(N)=O)NC(=O)c1ccc2ccccc2n1,"activity change, negative = inhibition",[1],inconclusive: 2.76% [activator]
same,Potency,[2],"inconclusive: 35.5 µM [inhibitor, partial curve, poor fit]"
CS(=O)(=O)Nc1cccc(-c2nccc(NCc3cccs3)n2)c1,"activity change, negative = inhibition",[1],inconclusive: -43.3% [inhibitor] [at 7.69 µM]
same,activation,[3],inconclusive: -34.2%
same,Potency,[2],inactive
COc1ccc(-c2nc3cnc(Oc4ccccc4)nc3n(CCC#N)c2=O)cc1,"activity change, negative = inhibition",[1],inconclusive: -33.1% [inhibitor] [at 7.69 µM]
same,Potency,[2],inactive
O=S(=O)(O)c1cc(N=Nc2cccc3ccccc23)c(O)c2ncccc12,"activity change, negative = inhibition",[1],inactive: -3.71% [at 7.69 µM]
same,Potency,[4],"inconclusive: 5.01 µM [inhibitor, partial curve]"
same,Potency,[3],"inconclusive: 3.16 µM [inhibitor, single point]"
CCNc1ncc2ncc(=O)n(Cc3cccs3)c2n1,"activity change, negative = inhibition",[1],inconclusive: -34.4% [inhibitor] [at 7.69 µM]
same,activation,[3],inactive: -28.8%
same,Potency,[2],inactive
CN(C)c1ncc2nc(-c3cn(C)c4ccccc34)c(=O)n(C[C@H]3CCCO3)c2n1,"activity change, negative = inhibition",[1],inactive: -23.8% [at 7.69 µM]
same,Potency,[5],"inconclusive: 3.98 µM [activator, partial curve]"
CC(C)Cn1cnc2c(Sc3c([N+](=O)[O-])ncn3C)nc(N)nc21,"activity change, negative = inhibition",[1],inactive: -3.59% [at 7.69 µM]
same,"activity change, negative = inhibition",[4],inactive: 6.3% [at 11.4 µM]
same,Potency,[5],inactive
